Experimental data: the RNAGym collection of RNA variant scans (doi:10.1073/pnas.2313332121)
Variants at the background level are over-represented here.

B1: TPR 5TU (parent)
chain: GGAUCUUCUCGAUCUAACAAAAAAGACAAAUCUGCCACAAAGCUUGAGAGCAUCUUCGGAUGCAGAGGCGGCAGCCUUCGGUGGCGCGAUAGCGCCAACGUUCUCAACUAUGACACGCAAAACGCGUGCUCCGUUGAAUGGAGUUUAUCAUG

Variants of: B1
Assay: polymerase ribozyme fitness, log enrichment relative to wild type (log ratio); higher = more active; in vitro selection for triplet polymerase activity
Procedure, shortened: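 A heterodimeric triplet polymerase ribozyme had each of its subunits mutagenized by PCR into a library, which was transcribed. One round of in vitro selection, done in triplicate, annealed each library with a biotinylated primer, its partner subunit and triplets, then incubated it frozen at −7 °C before gel excision of extended constructs, streptavidin-bead capture and RT-PCR. Fitness is the logarithm of genotype enrichment relative to wild-type enrichment, based on Illumina sequencing of inputs and outputs and inverse-variance-weighted replicate averages. A base-2 logarithm is used, and genotypes were kept only with ≥10 input reads and ≥1 read per output.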

Point of comparison: G11A G92U, “polymerase ribozyme fitness (log ratio)” value -1.16. Against it:
- C10G C54A U77G A98U C99G A107G — lower, ≤ -4.2
- G11A A17C A26C C43U G92U U144G — lower, ≤ -4.2
- C10U A37C C75U C95G — lower, ≤ -4.2
- C10U U53A — lower, -2.96
- G11A A20U C32U G84A — lower, ≤ -4.2
- G11A A20G A26C C32G U33G G81A A89U U102G A106U — lower, ≤ -4.2
- C10G A29U A39U G84C A98U U134C G140U G143A — lower, ≤ -4.2
- C10U G50C A64C G65C C93A A142U — lower, ≤ -4.2
- C10G C18U G59U G86A C103A — lower, ≤ -4.2
- C10U G86C — lower, ≤ -4.2
- C10G A37G G92C U135G A137G C149G — lower, ≤ -4.2
- C10G A28C U78A G92A C116A — lower, ≤ -4.2
- G11A G94U A113C C114U A122C G143U C149U — lower, ≤ -4.2
- C10G C69G U78C C85U A97U C103U — lower, ≤ -4.2
- C10G U13A A23U C32A A41G G71C C87U C105U A115U — lower, ≤ -4.2
- C10G C63U C85A C132U — lower, ≤ -4.2
- G11A A60G U77G G84U A91U — lower, ≤ -4.2
- C10U A28U A39C A49C U104G C118U — lower, ≤ -4.2
- C10U A22U A29G U53G C75A G83A A106U A150C — lower, ≤ -4.2
- G11A A39C U56A C132A A150G — lower, ≤ -4.2
- C10U C32G G67A U82A C87G A91G C129A U151A — lower, ≤ -4.2
- C10U U31C C54U G80A G92A C125U G141A — lower, ≤ -4.2
- C10G A28U C36G G71U C95U C123U — lower, ≤ -4.2
- C10G A22U C35U C38U C54G G83A G84U C87A U127C C129A — lower, ≤ -4.2
- G11A C85G C93U G126A A150C — lower, ≤ -4.2
- C10G G62A U144C — lower, ≤ -4.2
- C10U U44A U102G A119C A121G A137C G143A — lower, ≤ -4.2
- G11A A29U U82G C87A G94C C96U A98G A122C G141A — lower, ≤ -4.2
- C10G G11U C32A C51U C75U C93U C95A — lower, -4.16
- C10U U15C A40C U61A G71A G86A C132G G141U A147U — lower, ≤ -4.2
- C10G C14G A29C C69U C103A G112C A138C U139C — lower, ≤ -4.2
- C10G A37U U61C C116U G143C — lower, ≤ -4.2
- C10U U33G C38G U44G A52G C87U C108U C118U — lower, ≤ -4.2
- C10U C32U A41U — lower, ≤ -4.2
- C10U A20C A40C U55G C57U G92C — lower, ≤ -4.2
- G11C A21C U45A — lower, ≤ -4.2
- C10U C51U A73U C87G C99A C125G U130A U139C A142G — lower, ≤ -4.2
- G11A C32U G50A C57A C125G — lower, ≤ -4.2
- C10G C76U — lower, -3.93
- C10G C85U A91C C105A — lower, ≤ -4.2
- C10U G84A — lower, -3.34
- C10U G136A — lower, -2.74
- C10G G92C U111A C114A — lower, ≤ -4.2
- C10U A26U A41U G42A G86A C105A U135A U145G U146C — lower, ≤ -4.2
- C10G C36G A47U G65U C79G C93U C99G G126C U144C U148C — lower, ≤ -4.2
- C10U C27U C35G C87G C96U U148G — lower, ≤ -4.2
- C10G A40C C85A G92U A119C A147C — lower, ≤ -4.2
- C10G C27G C32A A60G G65C G84C C87G U134A — lower, ≤ -4.2
- G11A G59A — lower, -1.71
- C10U U13G C27A U33A C75G G88A A122U — lower, ≤ -4.2
- C10G U45A A47C G84C U101G U151A — lower, ≤ -4.2
- C10U G11U C54U U56A G58A A73G C85G U104A U111G A120U G143C — lower, ≤ -4.2
- C10G C18U A40C U44A C93G — lower, ≤ -4.2
- C10G C32A G86U G92C G124A A137G — lower, ≤ -4.2
- C10G A28U C51U C96U C123A — lower, ≤ -4.2
- C10U A26G A73U G94A — lower, ≤ -4.2
- C10G G71U C93U G117A — lower, ≤ -4.2
- G11C A19G C51U C75G G81C C96U C118A — lower, ≤ -4.2
- G11A C38U G59C A64U G81A C93U G94C — lower, ≤ -4.2
- C10G C54U G84U A89G — lower, ≤ -4.2
- G11A C87A G92U A107U C114U U148A — lower, ≤ -4.2
- G11A U13A C27G A49C C76U A89G A91G A97U C129U — lower, ≤ -4.2
- G11A A24U A49C C51U U101G — lower, ≤ -4.2
- C10U A26G C51A C54U U56A A97G — lower, ≤ -4.2
- C10G A73U C87U C108G C131A — lower, ≤ -4.2
- C10U C32G C35U A73G C95G C103G U144C — lower, ≤ -4.2
- C10U U15A A23U C36U U111G — lower, ≤ -4.2
- C10G C14A G46C U55G G59A G68A A113U — lower, ≤ -4.2
- G11A A17C A39C — lower, -3.25
- C10U A40G C105G — lower, ≤ -4.2
- C10U G11C C27U G34A A41G C118U A137U — lower, ≤ -4.2
- G11A A12U C38U A60U C76A C95G C99U C123G A142C — lower, ≤ -4.2
- G11A A60G G65C — lower, ≤ -4.2
- C10U A12U A39U C51G C96G — lower, ≤ -4.2
- C10U C54A G65C C93G — lower, ≤ -4.2
- C10U G42C G83U A97G G124U G133C — lower, ≤ -4.2
- G11A C14G A37C C54G G83C G141A — lower, ≤ -4.2
- C10U C35U — lower, -3.04
- C10G A40G U61A G143U — lower, ≤ -4.2
- C10U A28G A49G C85G C95U C103G G133U A147U — lower, ≤ -4.2
- C10U A40G G84U U130G C131G U144A — lower, ≤ -4.2
- G11A A26C G68U C75U A147C — lower, ≤ -4.2
- C10U A12C A40G G48C U55A U145G U148C C149G — lower, ≤ -4.2
